# Measurements taken from article PMC4336329 (PLoS ONE, 2015).
# The campaign covered roughly 310,000 compounds. About 2,200 (0.71%) showed an effect of 50% or more. Effects have a minus sign here. This is one part of the list.
# Biological target: human ether-à-go-go-related gene (hERG) potassium channel (human, UniProt Q12809)
# Assay: primary screen, population patch clamp on CHO cells stably expressing hERG
# Sequence of human ether-à-go-go-related gene (hERG) potassium channel (Q12809 whole entry, looked up): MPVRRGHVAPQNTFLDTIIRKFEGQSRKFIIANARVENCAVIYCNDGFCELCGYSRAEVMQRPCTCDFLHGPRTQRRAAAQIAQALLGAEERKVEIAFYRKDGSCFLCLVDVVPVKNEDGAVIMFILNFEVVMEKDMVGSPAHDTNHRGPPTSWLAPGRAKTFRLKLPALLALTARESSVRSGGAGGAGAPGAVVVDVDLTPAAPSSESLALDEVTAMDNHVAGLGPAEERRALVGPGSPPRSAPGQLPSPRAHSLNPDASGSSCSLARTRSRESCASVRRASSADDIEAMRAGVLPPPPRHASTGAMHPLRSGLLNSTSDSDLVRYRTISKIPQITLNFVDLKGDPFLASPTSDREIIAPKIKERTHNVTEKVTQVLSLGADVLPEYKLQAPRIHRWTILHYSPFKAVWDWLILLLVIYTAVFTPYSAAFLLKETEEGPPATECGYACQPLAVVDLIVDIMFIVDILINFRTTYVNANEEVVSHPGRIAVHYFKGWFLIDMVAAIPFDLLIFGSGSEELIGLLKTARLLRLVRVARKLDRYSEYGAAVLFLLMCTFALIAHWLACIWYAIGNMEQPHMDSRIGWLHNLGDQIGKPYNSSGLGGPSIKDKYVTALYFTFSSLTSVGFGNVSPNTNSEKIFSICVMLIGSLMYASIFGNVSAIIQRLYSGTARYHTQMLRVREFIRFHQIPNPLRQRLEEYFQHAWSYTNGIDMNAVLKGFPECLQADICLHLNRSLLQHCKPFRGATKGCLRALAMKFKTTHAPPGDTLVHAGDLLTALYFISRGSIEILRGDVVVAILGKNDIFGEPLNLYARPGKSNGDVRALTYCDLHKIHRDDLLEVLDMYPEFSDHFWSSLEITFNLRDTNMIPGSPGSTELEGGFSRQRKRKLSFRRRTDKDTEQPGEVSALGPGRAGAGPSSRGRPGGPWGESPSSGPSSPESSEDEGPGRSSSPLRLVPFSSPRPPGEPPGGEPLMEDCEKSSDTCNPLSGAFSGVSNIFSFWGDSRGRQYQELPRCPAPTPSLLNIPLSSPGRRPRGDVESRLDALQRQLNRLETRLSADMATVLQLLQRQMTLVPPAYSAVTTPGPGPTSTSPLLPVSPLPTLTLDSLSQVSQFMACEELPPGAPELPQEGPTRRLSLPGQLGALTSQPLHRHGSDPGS
row,Compound,"hERG current change (%, negative = inhibition) at 1uM"
1,O=C(Oc1ccc(/C=N/O)cc1)c1ccccc1,5.55%
2,N#Cc1cc2c(nc1SCc1ccccc1)CCCCC2,9.75%
3,O=C(OCc1cc2ccccc2[nH]c1=O)c1cccnc1,13.2%
4,COc1ccccc1/C=C(/C(=O)OCC(=O)NCc1ccccc1)c1ccccc1,8.03%
5,Nc1nc(-c2ccccc2)nc(-c2ccccc2O)n1,10.7%
6,COc1cccc(-c2nc(CS(=O)(=O)CC(=O)NC3CC3)c(C)o2)c1,28.1%
7,C=C(C)CSc1nnc([C@H](CCSC)NC(=O)OC(C)(C)C)o1,9.09%
8,COc1ccc(S(=O)(=O)NCc2ccco2)cc1C(=O)N1CCOCC1,18.4%
9,CCOc1ccc(N2CC(C(=O)OC)CC2=O)cc1 (stereo not drawn),3.56%
10,Cc1ccc(-c2nn(-c3cccc(F)c3)cc2CN(Cc2nccn2C)C(C)C)o1,8.2%
11,CCOC(=O)c1c(C)[nH]c(C(=O)COC(=O)C(C)Oc2ccc(Cl)cc2Cl)c1C (stereo not drawn),9.35%
12,COC(=O)c1ccc(COC(=O)c2cccnc2Cl)cc1,7.44%
13,COC(=O)Cn1c(=O)c(C)nc2ccccc21,9.09%
14,C=CCN1C(=O)/C(=C/c2ccc(O)c(OC)c2)S/C1=N/c1nccs1,-4.95%
15,NC(=O)C1(NC(=O)[C@@H]2CC3(CC(c4cccc(NC(=O)[C@@H]5CCC(=O)N5)c4)=NO3)CN2C(=O)Cc2ccc(Cl)cc2)CC1 (stereo partly drawn),22%
16,Cc1cccc(NC(=S)N2CCN(C(=O)C3CCCO3)CC2)c1 (stereo not drawn),13.9%
17,CCOc1ccc(/C(O)=C2\C(=O)C(=O)N(c3ccc(OC)cc3)C2c2ccccc2[N+](=O)[O-])cc1 (stereo not drawn),1.9%
18,CCOC(=O)c1ccc(NC(=O)CN2C(=O)CSC(C)C2=O)cc1 (stereo not drawn),14.1%
19,O=C(CCCc1nc2ccccc2s1)N1CCN(S(=O)(=O)c2cccs2)CC1,0.245%
20,O=C1c2ccccc2CN1C(CO)Cc1ccccc1 (stereo not drawn),14%
21,Cc1cccc(NS(=O)(=O)c2ccc3nc(-c4ccccc4)[nH]c3c2)c1C,7.69%
22,CN=c1scc(-c2cccs2)n1/N=C/c1ccc(O)c(O)c1O,4.88%
23,COc1ccc(S(=O)(=O)n2nc(OC(=O)c3cccs3)cc2N)cc1,2.34%

row,Compound,"hERG current change (%, negative = inhibition) at 1uM"
1,CCOc1cc(/C=N/O)ccc1OCc1ccc(F)cc1,11.9%
2,N#Cc1cccc(Cn2nnc(-c3ccccc3)n2)c1,2.53%
3,O=C1c2cccnc2C(=O)N1Cc1ccc(S(=O)(=O)NCc2ccco2)s1,14.8%
4,Cc1ccc(N=C(NOC(=O)c2ccccc2)c2nonc2N)c(C)c1,8.17%
5,O=C(Oc1c(Cl)cc(Cl)c2ccccc12)N1CCCC1,0.394%
6,COc1ccc(NC(=S)N2CCN(S(=O)(=O)c3ccc(C)cc3)CC2)cc1,18.7%
7,Cc1c(C(=O)NC(=S)Nc2ccc(N3CCOCC3)cc2)cccc1[N+](=O)[O-],7.16%
8,O=C(Nc1ccc(O)cc1)c1ccc2c(c1)C(=O)N(Cc1ccccc1)C2=O,-3.21%
9,CC(C)(C)C1CCC2(CC1)CC(=O)c1ccccc1O2 (stereo not drawn),15.9%
10,Cc1ccc(NC(=O)CSCC(=O)NCc2ccco2)cc1,8.46%
11,CCCN(CCC)CCNc1c(NC2CCN(C(=O)OCC)CC2)c(=O)c1=O,15.3%
12,COc1ccc(C2=NOC(C(=O)Nc3cccnc3Cl)C2)cc1 (stereo not drawn),10.7%
13,CN(C)c1ccc(N/C=C/C(=O)c2ccc(F)cc2)cc1,18.2%
14,COC(=O)c1ccc(NC(=O)Nc2ccccc2C)cc1,19.6%
15,O=C(O)C(=O)O.OCCNCCOCCOc1ccccc1-c1ccccc1,13.7%
16,CCOC(=O)CSc1nc(=O)n2cccc(C)c2n1,16.2%
17,COc1ccc(CCN2Cc3c(cccc3[N+](=O)[O-])C2=O)cc1OC,12.6%
18,CC(C)OC(=O)C1C(=O)CC(C)(O)C(C(=O)OC(C)C)C1c1cccc([N+](=O)[O-])c1 (stereo not drawn),18.1%
19,Br.CCOC(=O)c1c(CSC(=N)N)n(C)c2cc(Br)c(OC(C)=O)cc12,-36.7%
20,S=C(Nc1ccc(Cl)cc1)NC1CC2CCC(C1)N2Cc1ccccc1 (stereo not drawn),-32.4%
21,O=[N+]([O-])c1ccc(-c2nnc(CNC3CCCC3)o2)cc1,1.43%
22,O=C(CSc1nc2ccccc2o1)Nc1ccccc1N1CCCCCC1,13.1%
